Measured values as given in PubChem BioAssay AID1634 (National Center for Advancing Translational Sciences (NCATS), 2009).
In all, about 260,000 compounds went through this assay and about 150 (0.058%) were called active. This list was built around the results that the source calls inconclusive (neither active nor inactive); the mix of calls is not that of the screen. Calls follow the shape of the dose curve; as a rule, active = well fitted inhibition curve with a large enough effect; inconclusive = small, poorly fitted or top-dose-only effect; inactive = no such curve, though single readings can be large or run the other way. Potencies of inconclusive entries are left out as doubtful fits.

What follows are molecules tested against Pyruvate kinase PKM (Homo sapiens) (UniProt P14618) (assay: qHTS Assay for Inhibitors of Human Muscle isoform 2 Pyruvate Kinase). Settings: purified PKM2, ATP generation, Kinase-Glo luminescence; series mostly up to 57.5 µM; activity change, negative = inhibition: at the top concentration.
Outline: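 Coupled luciferase luminescence (Kinase-Glo) detects ATP generated from 0.1 mM ADP and 0.5 mM PEP in imidazole buffer pH 7.2 with KCl, MgCl2; 1 h at room temperature. Enzyme at intermediate activity; normalized to uninhibited and no-enzyme controls.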
Also: nearly all actives have a fitted effect of over 60% in size.
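For activity change, negative = inhibition in this document: plate controls were uninhibited enzyme wells for no effect and no-enzyme wells for full effect.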
Potency is read from the fitted curve at half-maximal effect; tags tell the direction and shape of the fitted curve.

Sequence of UniProt P14618 (P14618 whole entry, looked up, canonical isoform): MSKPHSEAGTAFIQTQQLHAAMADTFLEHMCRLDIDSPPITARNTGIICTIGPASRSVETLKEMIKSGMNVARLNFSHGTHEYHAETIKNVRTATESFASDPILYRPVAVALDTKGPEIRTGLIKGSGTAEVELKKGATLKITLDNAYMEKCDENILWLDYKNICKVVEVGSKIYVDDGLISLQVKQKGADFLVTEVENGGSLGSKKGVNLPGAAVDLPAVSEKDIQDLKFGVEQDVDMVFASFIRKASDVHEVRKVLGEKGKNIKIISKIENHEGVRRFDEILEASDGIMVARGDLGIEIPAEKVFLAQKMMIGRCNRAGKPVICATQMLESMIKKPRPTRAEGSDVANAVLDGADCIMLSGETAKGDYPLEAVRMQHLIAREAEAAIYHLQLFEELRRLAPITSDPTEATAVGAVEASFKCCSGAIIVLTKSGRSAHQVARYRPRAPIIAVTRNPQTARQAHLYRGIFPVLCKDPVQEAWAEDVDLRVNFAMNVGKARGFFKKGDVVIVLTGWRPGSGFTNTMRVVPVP

Structure (SMILES)	Potency	activity change, negative = inhibition
CCc1noc(C)c1C(=O)N1CCCC(CCC(=O)NCc2cccc(OC)c2)C1 (stereo unspecified)	inconclusive [falling, single point]	
CC(C)CCNC(=O)NC(=O)COc1ncnc2sccc12	inconclusive [falling, single point]	
O=C(/C=C/c1ccc(Br)cc1)NC(=S)Nc1ccc(S(=O)(=O)Nc2nccs2)cc1		inactive: 52.3%
CCn1c(-c2cc(-c3ccccc3)sc2N)n[nH]c1=S		inactive: 1.7%
CNC(=O)CN1C(=O)NC(Cc2c[nH]c3ccccc23)C1=O (stereo unspecified)	inconclusive [falling, single point]	
O=C1Nc2cc(Cl)ccc2C1(N1CCNCC1)C(F)(F)F (stereo unspecified)	inconclusive [falling, single point]	
O=C1/C(=C/c2ccncc2)CCc2ccccc21	inconclusive [falling, partial curve]	
O=C(/C=C/c1cccc(C(F)(F)F)c1)Nc1cccc(C(F)(F)F)c1	inconclusive [falling, single point]	
COc1ccc(NC(=O)Nc2cccc(NC(C)=O)c2)c(OC)c1	inconclusive [falling, single point]	
COc1ccccc1OCC(=O)NCCCn1ccnc1		inactive: 36.5%
Cc1ccccc1NCc1nc2ccccc2n1C	inconclusive [falling, single point]	
O=C(COC(=O)c1ccc2c(c1)OCO2)Nc1ccccc1	inconclusive [falling, single point]	
CN(C)c1ccc(/C=N/NC(=O)c2ccccn2)cc1	inconclusive [falling, partial curve]	
Cc1nc2cc(C(F)(F)F)ccc2n1CCNc1nc(-c2cc(Cl)c(N)c(Cl)c2)cs1		inactive: 36.2%
CSc1cnn(Cc2ccccc2)c(=O)c1SCc1ccccc1	inconclusive [falling, partial curve]	
Cc1cc(Cl)ccc1OCc1nnc2n1CCCCC2	inconclusive [falling, single point]	
O=C1C(c2cc(=O)c3ccccc3[nH]2)=C(O)c2ccccc21	active: 11.2 µM	
Cc1ccc(S(=O)(=O)N2CCCC2C(=O)NCc2ccco2)cc1 (stereo unspecified)		inactive: 31.4%
Cc1cc2c(cc1S(=O)(=O)Nc1cccc(C)c1C)n(C)c(=O)c(=O)n2C		inactive: 87.3%
O=C(Nc1cccc(S(=O)(=O)N2CCCC2)c1)c1cc(-c2ccccn2)nc2ccccc12	inconclusive [falling, single point]	
CCOC(=O)C1CCN(C(=O)COc2ccc(N(C)S(=O)(=O)c3ccc(C)cc3)cc2)CC1	inconclusive [falling, single point]	
Cc1ccc(C2C(=O)N(C3CCC(C)CC3)CC(=O)N2C2CC2)cc1 (stereo unspecified)	inconclusive [falling, single point]	
Cn1c(CCNS(=O)(=O)c2ccccc2)nc2cc([N+](=O)[O-])ccc21		inactive: 54%

Structure (SMILES)	Potency	activity change, negative = inhibition
COc1ccc(N/C=C/C(=O)c2ccccc2)cc1	inconclusive [falling, partial curve]	
Cc1cccc(NC(=O)c2cc3ccccc3o2)c1	inconclusive [falling, single point]	
O=C(NCC1CCCO1)c1sc(=S)n2c1[nH]c(=O)c1ccc(C(=O)N3CCCCC3)cc12 (stereo unspecified)	inconclusive [falling, single point]	
COc1ccccc1N1C(=O)C=C(Sc2nc(C)cc(C)n2)C1=O		inactive: 30.3%
CN(C)S(=O)(=O)c1ccc(NC(=O)COC(=O)c2n[nH]c3ccccc23)cc1		inactive: 38.3%
O=c1ccnc(Sc2ncccc2[N+](=O)[O-])[nH]1	inconclusive [falling, full curve, poor fit]	
Cc1cc(NC(=O)CSc2nc3c(cc2C#N)CCC3)no1		inactive: 82.2%
O=C(OCCNc1nc(-c2ccccc2)nc2ccccc12)c1ccncc1	inconclusive [falling, single point]	
O=C(COC(=O)c1ccc(S(=O)(=O)N2CCc3ccccc3C2)cc1)NC1CCS(=O)(=O)C1 (stereo unspecified)	inconclusive [falling, single point]	
Cc1[nH]n(-c2ccc([N+](=O)[O-])cc2)c(=O)c1/C=N/N1CCOCC1	inconclusive [falling, single point]	
COC(=O)c1ccc2c(c1)C(C)(C)C(/C=C/c1ccc(O)cc1)=[N+]2C	inconclusive [falling, partial curve, poor fit]	
CC(=O)Nc1cccc(NC(=O)CSc2nnc(Cc3cccn3C)n2CCc2ccccc2)c1	inconclusive [falling, single point]	
Cc1ccc(-c2nc3n(n2)Cc2ccccc2-3)cc1	inconclusive [falling, partial curve]	
O=C(CCc1nnc(-c2ccsc2)o1)N1CCCCC1CCn1ccnc1 (stereo unspecified)	inconclusive [falling, single point]	
COc1ccccc1C(=O)NCc1nnc(SC(C)C(=O)Nc2nccs2)n1C (stereo unspecified)		inactive: 34.9%
O=C(Nc1n[nH]c(=S)s1)c1ccco1	inconclusive [falling, single point]	
COc1cc(/C=N/Nc2nc3ccccc3[nH]2)cc(Br)c1OCC(=O)N(C)C		inactive: 34.8%
O=C(c1cccs1)N1CCCC(c2nc(-c3ccc(F)cc3)no2)C1 (stereo unspecified)	inconclusive [falling, single point]	
COc1ccc(CCNC(=O)Nc2cccc([N+](=O)[O-])c2)cc1	inconclusive [falling, single point]	
Cc1ccc(S(=O)(=O)NCC(=O)OCC(=O)NCc2ccc(F)cc2)cc1	inconclusive [falling, single point]	
Cc1ccc(S(=O)(=O)c2c(N)n(C)c3nc4ccccc4nc23)cc1		inactive: 62.8%
NN1C(=O)/C(=C\c2ccco2)SC1=S		inactive: 34.6%
Cc1[nH]n(-c2ccccc2)c(=O)c1/C=N/NC(=O)C(C)C	inconclusive [falling, single point]	
